Source: the supplement of paper PMC3334620
Whole data set: some 33,000 sequences, median “E-score (-0.5 to 0.5)” near -0.054, cut for the highest 2% near 0.39. This is one part of the list.

biological target: Ylr278c (UniProt Q05854); experiment: PBM E-score (8-mer binding enrichment) (E-score (-0.5 to 0.5)); higher = stronger / more preferred TF binding; most listed sequences are background and not binding sites; details: protein concentration: 200 nM; construct: GST-DNA-binding domain
In short: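 GST-tagged yeast TFs (full-length or DNA-binding domain) were made by PURExpress in vitro transcription/translation and applied at about 100-200 nM to universal all-10-mer Agilent arrays. The arrays were made double-stranded by primer extension, on fresh or once-stripped slides. Bound protein was detected with fluorescent anti-GST, and scans were normalised with masliner. Each ungapped eight-base word, pooled with its reverse complement, received an E-score (modified Wilcoxon-Mann-Whitney statistic) from the Universal PBM Analysis Suite.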

Sequence | PBM E-score
GTCTTCTA | -0.114
CGCTTTGC | 0.122
AGAAAGGG | -0.247
GGCTAATA | 0.113
CAAGCGCG | 0.0856
AGGAGGTG | -0.208
ACAAGCTG | -0.177
CGAGATCC | 0.305
CACCTAAA | -0.107
AAGCAGTA | -0.234
CATGGTCA | -0.0944
GCGTAGCC | -0.101
ATCGAGAA | -0.166
ACAATGGC | -0.074
GTACTGAA | -0.0131
CTGGCCGA | 0.0576
CTGGCAGC | -0.145
ACGCGTCC | -0.0394
AGCATTTA | -0.0809
CGGATCCC | 0.402
AGACTTGC | -0.117
ACGTCCCG | 0.164
GATTACCC | 0.162
GATAGGCC | -0.0314
CAAAATCG | 0.00929

Sequence | PBM E-score
GACCCGAA | 0.133
CCTAAGGC | -0.203
ACCATGCA | -0.029
CAATCATG | -0.214
GATTCGCA | 0.129
GCGAGACA | -0.246
CAATCATC | -0.00262
AGTTCTGG | -0.152
ACCGCCAT | 0.0274
AAGCCCAC | -0.144
CTTCGCCA | -0.0258
AGTTCACG | -0.188
CCTGGCGC | 0.0819
CCGACAAA | 0.296
CCGAGAAG | 0.226
CAACTCCC | 0.154
CGCTTCGC | 0.135
AAGTTCAC | -0.0335
CGGTGAGC | 0.171
ATAGTGTC | -0.139
CGCAAGTA | -0.0314
AACCGAAC | -0.0183
CCGCTCGA | 0.143
CCTGTCTA | -0.128
AATGGACA | -0.215

Sequence | PBM E-score
TGTTATAA | 0.0402
GCGGAGAA | 0.436
ATTCACGG | 0.248
GTTAAGAA | -0.0964
AGCTAGTG | -0.312
CCTCGTGA | -0.12
AACCCAAT | -0.245
CAACCCAC | -0.00925
CCCTGTAC | -0.228
ATTTCTTG | 0.0359
GACGCAAC | 0.0987
AAGTCCAT | -0.0494
ACAAGGTC | -0.128
ATCCATCC | 0.223
GTAAGCCA | -0.214
CATCATGC | -0.207
AAGCGGAA | 0.326
GCACTTCA | 0.102
TCTGAAAA | -0.122
CATATAAA | -0.147
GAGCCACC | -0.0391
ATGCAAAA | -0.0936
CATCACCG | 0.0956
CGGATCTC | 0.365
CCTCGAAC | -0.204

Sequence | PBM E-score
CTCTCGGA | 0.405
CATTATGC | -0.0323
CCCATATA | -0.024
GGGACACA | -0.0511
AGTGAAAC | -0.0278
CCCATCCG | 0.0827
ATATTCTC | 0.00864
CATATGAC | -0.168
GAGTTACA | 0.111
AAGATACT | 0.0493
AATGTGGC | -0.019
ACCCTCAG | -0.126
GCGAGCGA | 0.0207
ATCGCATG | -0.0936
ATAATGTG | -0.159
CGTATAAG | -0.0319
ATCTGACG | -0.134
ACGACAGC | -0.241
AATAGATT | -0.0366
CGATTAAG | 0.0117
CACCCTAG | -0.219
ATCCAGAC | 0.085
GCACCAAA | -0.0887
CTTAGTAC | -0.159
AGAGGTGA | -0.22

Sequence | PBM E-score
AGTTAATC | -0.0457
AGTCAACG | -0.258
ATGGAACG | -0.0457
GAAAACAC | 0.204
AGTTGCGG | 0.242
ACGCCCTA | -0.0143
AGCCGTGA | 0.0633
ACAGTTAA | -0.065
CAACGAAA | -0.0107
ACGGGAGG | 0.0879
GTTAATCA | -0.0638
ATTAGGAC | -0.212
TCTTACAA | -0.172
GTGTTCCA | -0.0694
CCAAGTTC | 0.0338
CGGCCCTA | 0.169
GCACCAGC | -0.144
GCCGCTCA | 0.103
GTAAACTA | 0.0138
AACACTTC | -0.105
ACCACCCT | -0.22
ATCGGCAC | 0.252
CTATGGGC | -0.181
CCCCGCGC | 0.317
GCCCGGGA | 0.341

Sequence | PBM E-score
CACGTATG | -0.177
CGGAATCA | 0.39
GGCCTTCA | 0.0658
AAATGGAG | 0.0932
CGTACCGC | 0.0934
ACACGGGA | 0.129
AACCGACA | -0.0194
CAATTTGG | -0.0927
GCTTGTCA | 0.00249
CTCCCACA | 0.00574
AGCCTACC | -0.0995
CGTGTCGA | -0.133
GCAATAAA | 0.0137
AATATACG | -0.111
CATAACTC | -0.0582
CAGGCAAC | -0.22
ATAAATTC | -0.0248
AACAAGGT | -0.0398
AAGTCTAC | -0.137
CCGCACTC | 0.229
CAGGCTAC | -0.191
CGCATATC | 0.0684
CTGGTCAC | -0.279
GCCCCAGA | 0.0596
CCACACCC | 0.0395

Sequence | PBM E-score
CATGATCG | -0.0501
TACTCCCA | -0.0458
ACCGGACA | 0.401
CGGCTAGA | 0.0973
CAAAGCCC | 0.15
AGGAGTTG | 0.00225
ACGTGGAC | -0.0384
AAGCATAT | -0.014
AACCTTCA | -0.245
AATTAGCT | 0.0507
GCCCCCCC | -0.289
CTGCGGAA | 0.214
AGCGCGAA | 0.0776
GATATTCA | 0.0432
TCCTTGAA | -0.227
AGGGTTCG | -0.0349
TATTGACA | -0.141
ACGGATAT | 0.305
CCAGGTCC | 0.0683
CTCTCACC | -0.104
ACAGCCCT | -0.133
CGACATCG | 0.0791
GTTATCTA | -0.0157
GACCAGCA | -0.00964
AACACCGT | 0.178

Sequence | PBM E-score
CCCTCTTA | -0.162
AAGGCTTG | -0.229
CAACGTAC | -0.339
CGATAGCG | 0.187
CCAGCGGA | 0.342
ACTAAATA | -0.0557
ACGCATGC | -0.0181
CTATAATA | -0.0183
AGGGGTAT | -0.0462
CAAGCATA | -0.136
GTCGCGGA | 0.294
AACATAGC | -0.0617
CACATCCA | -0.178
GCATAGGC | -0.265
ACAACACT | -0.052
CCAAATAC | -0.107
ACGCCGTA | 0.0546
GGATGTTA | 0.145
CTCGGAAA | 0.374
CTTGCAGA | -0.155
ATACAGAA | 0.0316
CATGGCGG | 0.145
CCGTGGCG | 0.209
CCTTAAAG | -0.182
AGCTGGTG | -0.109

Sequence | PBM E-score
CATTTAGG | -0.0981
GCTTCGGA | 0.367
GATTATGA | -0.0204
CAAGTTCA | 0.106
CCGTTCGA | 0.0394
CGCGGCTC | 0.276
CTGCAGAA | 0.0638
CAGATGCA | -0.238
AACCACGA | -0.143
CATAACCC | -0.0526
CTTGCAAA | 0.034
GAATTGTA | -0.0727
AGAAACAA | 0.00831
ACATTAAG | -0.305
CCCGCCGA | 0.334
ACCGGTTA | 0.293
GTTGGGTA | -0.168
GGAGGCTA | 0.106
CCCAAGGC | 0.0152
ATAATCGC | 0.00024
GTGTTATA | -0.101
CCAAAAAG | -0.111
ACCACGGG | 0.076
AATTTTAC | 0.0636
CCGCCGCG | 0.347

Sequence | PBM E-score
ATCCTTTG | -0.118
ACCTTTTA | -0.217
GATCGGCC | 0.226
GTATGCAC | -0.125
CACTTTTC | 0.11
ATGCCCGG | 0.345
AAAATCCT | 0.0735
CCTGGATA | -0.149
ACCAGCTC | -0.13
CGTCAACG | 0.0817
ACATCGCG | 0.0985
TAAGTTAA | -0.0777
GATTGTGC | 0.0423
CCTGCCGC | -0.0615
TCGGTAAA | 0.199
ACTGACGA | -0.167
AGATACTC | -0.016
AGTCTCCG | 0.434
GCTGCCAC | 0.00937
AAGGACAT | -0.204
GAAAAATA | 0.0789
GAGTACTC | 0.0459
GCAGTGTA | -0.203
AACACTCA | 0.0548
AGGAGCCA | -0.297

Sequence | PBM E-score
TGGTGGAA | -0.0956
ACAGGCCG | 0.156
GTAAAAGA | -0.136
ACCAAAGT | -0.0748
AACCAGTG | -0.11
CGAAGCAG | 0.0313
TTCCTCAA | -0.0792
ACAGCTGG | -0.0998
GAAAGCGC | 0.06
GAACCTTC | -0.0979
CCTAGACG | -0.0786
CTAATTTA | -0.0718
CACTGCAG | -0.143
AGATTCGC | -0.0847
ATACCACG | 0.022
ATGGCGTG | -0.206
CGTGTACA | -0.144
CACTTTAA | 0.0526
CGGTAAAA | 0.256
GACCTGCC | -0.0574
CACTAACG | -0.17
CCTTCCTC | -0.149
GCGTGACC | -0.0159
GAATATTC | 0.135
AAGCCCAA | -0.0867

Sequence | PBM E-score
CACAGAGA | -0.156
CAATCTAG | -0.0575
CAACCGGA | 0.414
AACGTGGC | -0.0871
ACTCGGGA | 0.24
CGATCCGC | 0.241
AGTATTAC | -0.0424
CCCTCAGG | -0.219
ACTGAAAT | -0.168
ATGATGTC | 0.0944
AGTTACTG | 0.0764
AGAAATGG | -0.0667
CCTGGCTA | -0.265
CACAAGGC | -0.0453
CAGGAGTC | 0.055
TGAGCTCA | 0.0455
CACATGTG | -0.206
CATCAACA | 0.0398
AGACTGGA | -0.176
AATGTCCG | 0.458
GAAAGCCA | -0.115
CTGTCACA | -0.218
AAAAATTA | 0.0229
ATGCGTGC | -0.188
GAATGTCC | 0.219

Sequence | PBM E-score
AAGGATCA | -0.168
ATGAAGAC | -0.204
AACTTTAA | 0.0291
TAGCTGGA | -0.361
GGGAGCTA | -0.0279
CGTACGCC | 0.181
ATAAGGCA | -0.168
CTCGTGGA | -0.0362
GAGCGTGA | -0.0208
ATGAGTTG | 0.0404
ATGTAGAA | -0.0637
AAATCGCC | 0.175
CAATCAAG | -0.205
CACAGTTA | -0.193
CGAAAAGA | 0.0562
TGCAAACA | -0.384
ACTAGGCG | 0.0778
CGAATCGA | 0.163
ATCCCGCG | 0.357
CGTTGCTC | 0.072
GTTGTAGA | -0.223
ACGATACC | 0.0214
CGTGTCTC | -0.113
AAGCAGAT | -0.0158
TGCGATAA | -0.0659

Sequence | PBM E-score
CGTACACA | -0.146
ATGTCACC | -0.036
AGTGGACC | -0.189
AATGGGGC | -0.14
ATGTCCGA | 0.455
CGATTTAA | 0.0417
CATTAAAC | -0.165
CAGGGATG | -0.146
CTGTAACC | 0.0533
GCTCTCCC | -0.0961
AAAATATT | 0.05
ATTATGCA | -0.208
AAAGCATG | -0.177
CCGGGAAA | 0.354
GGGAGGGA | 0.194
CATAAATC | 0.13
GATTTGGA | -0.0154
GAGTAACA | 0.132
AAGGGTCA | -0.126
